# From the BET-seq Pho4 binding data (Le et al. 2018)
# The other results are listed elsewhere or left out. The energies were worked out here from pooled read counts, against the library average; single values are noisy.
# Molecular target: T1, Pho4 (S. cerevisiae) (UniProt P07270)
# T1 sequence: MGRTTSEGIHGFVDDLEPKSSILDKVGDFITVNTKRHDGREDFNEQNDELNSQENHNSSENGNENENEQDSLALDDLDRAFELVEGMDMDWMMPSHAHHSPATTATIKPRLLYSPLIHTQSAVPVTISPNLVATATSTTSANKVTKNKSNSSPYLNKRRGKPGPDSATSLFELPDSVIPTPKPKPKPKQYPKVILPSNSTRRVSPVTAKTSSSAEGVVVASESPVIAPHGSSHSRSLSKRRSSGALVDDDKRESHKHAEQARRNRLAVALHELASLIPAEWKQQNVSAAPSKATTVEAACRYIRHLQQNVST
# Experiment: relative binding free energy (BET-seq); higher = weaker binding
# Settings: reference: library average
row,Sequence,relative binding free energy [kcal/mol]
1,GGGGGCACGTGGTTAG,-0.09
2,TTAAACACGTGGGATA,-0.02
3,GAGTGCACGTGGGCCT,-0.13
4,CGGTGCACGTGCAGTT,-0.06
5,ACGGGCACGTGTGGCT,-0.14
6,ATTGTCACGTGCTTAG,0.01
7,ATTGGCACGTGTGCGA,-0.16
8,AATAGCACGTGTTTAT,-0.01
9,ATTTACACGTGGACTT,0.17
10,CCTGTCACGTGAGGGT,0.22
11,AGTTGCACGTGATTAT,0
12,TGCGGCACGTGCTTGG,-0.15
13,AGTGACACGTGGGGGG,-0.14
14,TTAGCCACGTGGAGTT,-0.14
15,TGTGCCACGTGGCGGG,-0.22
16,TGGGACACGTGGGGCT,-0.11
17,TTCGGCACGTGAGAGG,0.2
18,GAAGTCACGTGGTGCG,0.01
19,TATTGCACGTGGCCTG,-0.1
20,ACGGTCACGTGATTGT,0.21
21,GTTCTCACGTGTGAGA,0.36
22,AAGAACACGTGGGGTG,-0.15
23,GAGTGCACGTGAAATG,0.32
24,TCTGGCACGTGGCGTT,-0.22
25,AGGGCCACGTGGTCGG,-0.15
26,GGGGACACGTGGAGCA,0.02

row,Sequence,relative binding free energy [kcal/mol]
1,TGGAGCACGTGAGTGC,0.2
2,GTGATCACGTGCTTGG,0.2
3,CGGTGCACGTGATGTA,0.02
4,TATGGCACGTGGGAAA,-0.04
5,AATTTCACGTGGAGGC,0.27
6,GTGACCACGTGGAGGT,0
7,TGGGGCACGTGGGGGC,-0.25
8,TTTGTCACGTGCCGTT,-0.14
9,TTGTGCACGTGTATGA,-0.02
10,GGATGCACGTGGAGAG,0.09
11,GGGTACACGTGGTAGT,0.06
12,CTTGACACGTGTTTGG,0.07
13,GGTCTCACGTGGAGGT,0.14
14,GGGGTCACGTGATAAT,0.29
15,GTCGCCACGTGGGGGG,-0.33
16,AATGCCACGTGTTTTG,0.06
17,TTTTTCACGTGCGTAC,0.22
18,TCTGGCACGTGTACGG,-0.06
19,AAGTGCACGTGATATG,0.1
20,GTTGGCACGTGTATGA,0.09
21,TGTCACACGTGTGGTA,0
22,GTTGTCACGTGCGCTA,0.06
23,GGTCGCACGTGCTGGA,-0.05
24,AGGTGCACGTGGTGCG,-0.11
25,TTGAACACGTGGTCAT,-0.03
26,AATAGCACGTGTGATG,0.01

row,Sequence,relative binding free energy [kcal/mol]
1,TTTTACACGTGATTGA,0.25
2,AATTTCACGTGTATAG,0.32
3,GTGTACACGTGGTGAT,-0.11
4,CTTTTCACGTGCGGTA,0.25
5,GGGTTCACGTGATTGG,0.55
6,GTAGTCACGTGGAGAA,0.15
7,AAGGTCACGTGTGCGT,0.13
8,TTATGCACGTGTAAGA,0.15
9,TGAGGCACGTGGTGTG,-0.08
10,TCTTACACGTGTGTTA,0.06
11,GAAGGCACGTGTTTAG,-0.13
12,CTTTGCACGTGGTGTA,-0.25
13,ATAGTCACGTGCGAGT,-0.04
14,TGATACACGTGGTAAG,0.01
15,TGCATCACGTGAAGGG,0.35
16,TCTGTCACGTGCTGGT,0.11
17,GGATTCACGTGAGTCG,0.49
18,ATGTACACGTGTGTTC,-0.1
19,GTGCACACGTGTTTAT,0.11
20,CGGTACACGTGAGTAG,0.29
21,GCTTACACGTGTTTGG,0.15
22,CGATGCACGTGGTATA,-0.08
23,TGGTTCACGTGCAGTT,0.27
24,TTAATCACGTGTAATC,0.22
25,TGGGACACGTGTCAGG,0.08
26,AATCTCACGTGAGGGT,0.31

row,Sequence,relative binding free energy [kcal/mol]
1,AGATGCACGTGTAAAT,0.12
2,TTTGCCACGTGAGTAG,0.09
3,GTGGGCACGTGTCATA,-0.06
4,ATGTTCACGTGGTAGC,0.16
5,CTTGGCACGTGGGTGT,-0.27
6,TGCGGCACGTGTTTGC,-0.04
7,AGCGGCACGTGAAGGG,0.07
8,CGACGCACGTGAGGGG,0.2
9,AGTGGCACGTGTAGGT,-0.14
10,GTTAGCACGTGTGGAA,0.05
11,AGTATCACGTGGGTAC,0.01
12,GATGACACGTGAGGAG,0.34
13,GCGTGCACGTGGATGA,-0.01
14,TGAGGCACGTGTTAGG,-0.09
15,TTTTACACGTGCGGTA,0.13
16,TAAGTCACGTGCAGGG,0.14
17,TTCTGCACGTGGTATG,-0.08
18,GGGGCCACGTGAGTTC,0.3
19,GGGGGCACGTGTGTCC,-0.14
20,TATATCACGTGGGTCT,-0.06
21,ATTGGCACGTGTAGGG,-0.07
22,GTGTGCACGTGAGCGG,0.16
23,AGGATCACGTGGGAGT,0.12
24,GAGTGCACGTGTTAGT,-0.09
25,GGTTTCACGTGCTGAA,0.35
26,ATCTTCACGTGGATTG,0.29

row,Sequence,relative binding free energy [kcal/mol]
1,TTACTCACGTGGTAGT,0.06
2,GGGGACACGTGAGTAA,0.2
3,TATTGCACGTGTTAGG,0.04
4,GTGTGCACGTGTGATA,0.14
5,GGGTGCACGTGCGCAG,-0.23
6,GTAAGCACGTGTTTGG,-0.05
7,TTTTTCACGTGACGCT,0.31
8,GTTGGCACGTGATAGC,0.03
9,GATAGCACGTGTCGGT,-0.02
10,GTGTTCACGTGTTGCG,0.25
11,AGTTACACGTGCTTGT,-0.03
12,CTCGGCACGTGGGGTT,-0.25
13,ACGTTCACGTGGATGG,0.06
14,GCGGTCACGTGAGGGC,0.37
15,TCTCGCACGTGCGGGG,-0.13
16,AACAGCACGTGGTGGG,-0.23
17,TAGGCCACGTGTGTAT,-0.08
18,AGATGCACGTGTAGTG,0
19,TAATTCACGTGTGGGA,0.26
20,CGTTGCACGTGGGAGG,-0.11
21,GTTGTCACGTGTGATC,0.17
22,AAATACACGTGTTTTG,0.1
23,AGTAGCACGTGTTTCA,-0.1
24,GGCGTCACGTGAGGAG,0.3
25,ATTTTCACGTGACAGT,0.29
26,GTAGACACGTGAGATT,0.31

row,Sequence,relative binding free energy [kcal/mol]
1,GCAATCACGTGGGGGT,0
2,TAGTGCACGTGTATAT,0.05
3,GTTCACACGTGATATG,0.27
4,AGGTTCACGTGAGGAG,0.52
5,CATGTCACGTGGGCTG,-0.19
6,TGGGACACGTGAGCGG,0.16
7,GAAAGCACGTGGTGGA,-0.24
8,AGGCGCACGTGTGGTC,-0.06
9,TTAGTCACGTGACAGG,0.16
10,GGGTTCACGTGGTGCG,0.24
11,GTGGACACGTGAAAGT,0.21
12,TGTGGCACGTGGGTAG,-0.18
13,TAAGCCACGTGTAGGT,-0.03
14,TGATTCACGTGGCAGG,0.01
15,CGTGTCACGTGGGAAG,0.02
16,AGGGCCACGTGTGGTC,-0.04
17,CGCAGCACGTGTGGTG,-0.13
18,GAGATCACGTGTAGTG,0.14
19,CAGGGCACGTGTAAAT,0.17
20,TGAGACACGTGTCGGG,-0.02
21,GTTCGCACGTGTTGAT,-0.09
22,TTGGTCACGTGAGTTA,0.39
23,AGGGGCACGTGCTCAG,-0.19
24,CGGAGCACGTGGGGGT,-0.27
25,TATTTCACGTGTAGGA,0.31
26,AGGGTCACGTGTCCGT,-0.03

row,Sequence,relative binding free energy [kcal/mol]
1,GGCCTCACGTGGGGTA,0.08
2,CGGGGCACGTGTGCAT,-0.15
3,GTGTTCACGTGTTTTC,0.35
4,GGGACCACGTGGTCGG,-0.1
5,GCCGACACGTGGGGGG,-0.18
6,AGAGGCACGTGGAGAT,-0.06
7,GGCATCACGTGTGAGT,0.24
8,GATCGCACGTGTTCGG,0.27
9,TGCTGCACGTGAGGGA,0.23
10,TGGTCCACGTGTATTA,0.02
11,TCTGGCACGTGGGTGA,-0.19
12,GGTGCCACGTGAAGGG,0.14
13,GCTGTCACGTGGAGTA,0.13
14,ATAGGCACGTGATTTT,0
15,GATCGCACGTGGGGAG,-0.16
16,TAGTACACGTGCGTAT,0.02
17,AGAGGCACGTGTCTAG,-0.09
18,TAGTACACGTGGGTGT,-0.22
19,TTGTGCACGTGTTTCA,0.01
20,CTTATCACGTGGGTAG,0.05
21,TGGTGCACGTGATCAG,0
22,ATGGACACGTGTCGGA,0.15
23,CGGGTCACGTGAGAGG,0.38
24,GTTAGCACGTGTTAAG,0.05
25,GGTGGCACGTGTAAGT,0.07
26,TAGTGCACGTGGGTTC,-0.08

row,Sequence,relative binding free energy [kcal/mol]
1,GGGTTCACGTGATGCT,0.43
2,TAGAGCACGTGAGTAG,0.11
3,GATGACACGTGGAGGT,0.17
4,CTAAGCACGTGTGGGG,-0.05
5,GTGAGCACGTGTACGT,0.09
6,ATATACACGTGTTTCG,0.01
7,TTGGGCACGTGACCGT,-0.13
8,AAGTTCACGTGGTTGC,0.28
9,CGGAACACGTGATTGT,0.13
10,GTCGGCACGTGCGTTA,-0.01
11,TACGTCACGTGGTCGG,-0.12
12,GATAACACGTGCGTTG,0.09
13,TTTCTCACGTGTGCTT,0.25
14,TGTAACACGTGCAAGG,0.08
15,AGAAGCACGTGGTGCT,-0.11
16,AGATGCACGTGTGTGC,-0.03
17,GTTTTCACGTGATTCG,0.19
18,GGTTCCACGTGTATGG,0.16
19,GTAAACACGTGTTGAT,0.01
20,TTAGACACGTGTATAA,0.1
21,TGGTGCACGTGCGCGC,-0.11
22,ATTTTCACGTGAGGGC,0.38
23,TTCTGCACGTGGTGCT,-0.16
24,AAAGGCACGTGTTGTA,-0.1
25,TGTCGCACGTGGGTAG,-0.34
26,TTTTGCACGTGCTGGA,0.04

row,Sequence,relative binding free energy [kcal/mol]
1,GCGGGCACGTGGTTGA,-0.18
2,TTGATCACGTGTGTGA,0.18
3,AGGTTCACGTGATCTG,0.15
4,ACTGTCACGTGTGGGC,-0.01
5,GTAGTCACGTGTATGA,0.03
6,GGGAGCACGTGTAGGT,-0.05
7,TTGGACACGTGTCAAG,0.26
8,AGTGTCACGTGATTTG,0.23
9,TCAGGCACGTGGATGA,-0.04
10,AGGTTCACGTGGCGTT,0.15
11,TTGGGCACGTGGATCT,-0.14
12,GGCGGCACGTGGTAAT,0
13,GTTTACACGTGTTTAT,0.11
14,AGAAGCACGTGGGGTG,-0.24
15,TATAGCACGTGCTGGG,-0.19
16,TACGACACGTGGGGGA,-0.14
17,GAGTCCACGTGGTGGG,0.09
18,TCATGCACGTGAGGTT,0.17
19,AATTTCACGTGGTAGG,0.37
20,CGGGGCACGTGCATGT,-0.19
21,TGTGCCACGTGGTGAG,-0.21
22,CATGGCACGTGATAGG,0.03
